The campaign covered roughly 94,000 compounds. About 4,000 (4.3%) were called active. The inconclusive results got no clear call from the source; some entries with a clear call stand among them for comparison. Calls come from the whole dose curve; as a rule, active = well fitted inhibition curve with a large enough effect; inconclusive = small, poorly fitted or top-dose-only effect; inactive = no such curve, though single readings can be large or run the other way. Potencies beside an inconclusive call are fits to weak or partial responses and may not hold up.
test: Cytotoxic Profiling in NIH 3T3 Cell Line of Diverse Libraries Using Quantitative High-Throughput Screening; settings: NIH 3T3 viability, CellTiter-Glo ATP luminescence, 48-72 h; activity change, negative = cytotoxicity: at 96.7 µM (top of the series); series mostly up to 96.7 µM; note: nearly all actives have a fitted effect of over 55% in size
Outline: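 First NIH 3T3 cells are plated at 400 cells/well; next compound is pinned in; then plates incubate 48 or 72 hr at 37 °C; finally CellTiter-Glo is added and luminescence read after 10 min.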
% is set by controls: 0 for no effect and ±100 for the full control effect; potency is the fitted concentration of half-maximal effect; tags give direction and shape of the fitted curve.

Q: Which Potency does the source give for `COc1ccc(CN2CCc3ncc(C(=O)Nc4ccccc4C)n3CC2)cn1` here?
A: inconclusive: 112 µM [inhibitor, single point]

Q: With `CN(Cc1nnc(C(=O)N2CCC[C@@H]2c2cccc(F)c2)n1-c1ccccc1)c1ccccc1` as the molecule, how does the Potency read?
A: inconclusive: 79.4 µM [inhibitor, single point]

Q: With `COc1cccc(-c2cc(C3CCN(C(=O)Nc4ccc(C)cc4C)CC3)[nH]n2)c1` as the molecule, how does the Potency read?
A: inconclusive: 44.7 µM [inhibitor, partial curve, poor fit]

Q: For `Cc1cc(C)cc(C(=O)N2CCCC3(C2)NC(=O)N(Cc2ccc(Cl)cc2)C3=O)c1` (stereo unspecified), which Potency is on record?
A: inconclusive: 70.8 µM [inhibitor, single point]

Q: For `COCCOC1CCOC2(CCN(C(=O)COc3ccc(F)cc3)CC2)C1` (stereo unspecified), which “activity change, negative = cytotoxicity” value is on record?
A: inactive: -11.3%

Q: Which Potency does the source give for `Cc1cccc(C(=O)N2CC(N(Cc3ccncc3)CC3CC3)C2)c1` here?
A: inconclusive: 70.8 µM [inhibitor, partial curve, poor fit]

Q: For `Cn1cnc(S(=O)(=O)N2C[C@@H](C(=O)O)[C@H](c3ccccn3)C2)c1`, which “activity change, negative = cytotoxicity” value is on record?
A: inactive: 0.596%

Q: Which Potency does the source give for `CNC(=O)c1ccc2c(c1)NC(C)(CCCCc1ccccc1)CO2` (stereo unspecified) here?
A: inconclusive: 44.7 µM [inhibitor, partial curve, poor fit]

Q: For `O=C(Cc1ccc(N(Cc2ccccc2)C(=O)c2ccco2)cc1)NCc1ccco1`, which Potency is on record?
A: inconclusive: 50.1 µM [inhibitor, partial curve, poor fit]

Q: Which “activity change, negative = cytotoxicity” value does the source give for `O=C1NCCOCCN(C(=O)NCCc2ccccc2)[C@@H]2CCCC[C@H]12` here?
A: inactive: -11.4%

Q: With `CCC(=O)N1CCN(c2nc3c(s2)CC(C(=O)NCC(C)C)CC3)CC1` (stereo unspecified) as the molecule, how does the “activity change, negative = cytotoxicity” value read?
A: inactive: -17.6%

Q: With `Cc1ccc(S(=O)(=O)N2CCCC(Cn3c(C)nc4cccnc43)C2)c(C)c1` (stereo unspecified) as the molecule, how does the Potency read?
A: inconclusive: 10 µM [inhibitor, full curve, poor fit]

Q: With `CN(CC(O)c1ccccc1)C(=O)c1cn(C(c2ccccc2)c2ccccc2)nn1` (stereo unspecified) as the molecule, how does the “activity change, negative = cytotoxicity” value read?
A: inactive: -2.98%

Q: Which “activity change, negative = cytotoxicity” value does the source give for `Cn1nccc1C(=O)N1CC(C(=O)Nc2ccccn2)C2(CCOCC2)C1` (stereo unspecified) here?
A: inactive: -2.06%

Q: With `O=C(NCc1cccs1)c1c[nH]c2ncccc12` as the molecule, how does the Potency read?
A: inconclusive: 89.1 µM [inhibitor, partial curve, poor fit]

Q: For `Cc1nn2c(c1-c1ccccc1OCc1ccccc1)N(Cc1nccn1C)CCC2`, which Potency is on record?
A: inconclusive: 112 µM [inhibitor, single point]

Q: Which Potency does the source give for `Cn1nccc1-c1cn(C)c(=O)n2cc(COc3ccc(Cl)cc3)nc12` here?
A: inconclusive: 100 µM [inhibitor, partial curve, poor fit]

Q: For `O=C(N[C@H]1CO[C@H]2[C@@H]1OC[C@@H]2Nc1nccc(-c2cccs2)n1)c1ccccc1`, which Potency is on record?
A: inconclusive: 39.8 µM [inhibitor, full curve, poor fit]

Q: For `O=C1[C@@H]2C[C@@H](O)CN2C2(CN(Cc3ccccc3Cl)C2)C(=O)N1Cc1ccccc1F`, which Potency is on record?
A: inconclusive: 79.4 µM [inhibitor, partial curve]

Q: With `CCC[C@H]1CN(C(=O)c2nc(-c3ccccc3)[nH]c2C)C[C@@H]1N` as the molecule, how does the “activity change, negative = cytotoxicity” value read?
A: inactive: 4.92%

Q: With `O=C(Nc1ccc([C@@H](O)[C@H]2COCC(=O)N2CC2CC2)cc1)C1CCCC1` as the molecule, how does the Potency read?
A: inconclusive: 44.7 µM [inhibitor, partial curve, poor fit]

Q: With `O=C(c1ccccc1F)N1CC(Oc2ccc(-c3nc(-c4ccccc4)no3)cc2)C1` as the molecule, how does the Potency read?
A: active: 44.7 µM

Q: For `O=C(NCC1Cn2cccc2CN1Cc1ccccc1)C1CC1` (stereo unspecified), which Potency is on record?
A: inconclusive: 70.8 µM [inhibitor, single point]

Q: With `Cc1ccc(CNC(=O)[C@H]2CN(Cc3ccccc3)C[C@H]2C(=O)O)o1` as the molecule, how does the “activity change, negative = cytotoxicity” value read?
A: inactive: -22.8%

Q: With `O=C(O)c1ccc(CN2CCOC[C@H]2c2ncc(-c3ccc(F)cc3)[nH]2)cc1` as the molecule, how does the Potency read?
A: inconclusive: 100 µM [inhibitor, single point]

Q: For `c1ccc(CN(C2CCOCC2)C2CN(Cc3cncs3)C2)cc1`, which “activity change, negative = cytotoxicity” value is on record?
A: inactive: -15.3%

Q: For `COCCc1nncn1C1CCN(C(=O)c2cccc(Br)c2)CC1`, which Potency is on record?
A: inconclusive: 70.8 µM [inhibitor, partial curve, poor fit]

Q: Which Potency does the source give for `O=C(OCc1ccccc1)N1CCC2(CC1)C(=O)NN=C2c1cccnc1` here?
A: inconclusive: 2.51 µM [inhibitor, full curve, poor fit]

Q: Which Potency does the source give for `COc1ccc(CC2CCOC3(CCN(S(=O)(=O)c4c(C)nn(C)c4C)CC3)C2)cc1` (stereo unspecified) here?
A: inconclusive: 50.1 µM [inhibitor, partial curve, poor fit]

Q: For `Cc1cccc(-c2noc(CCC(=O)N3CCC(C)(c4noc(C5CC5)n4)CC3)n2)c1`, which Potency is on record?
A: inconclusive: 44.7 µM [inhibitor, partial curve, poor fit]

Q: For `CC(C)CCN1CCOc2cc(C(=O)NCCOc3ccccc3)ccc2C1`, which Potency is on record?
A: inconclusive: 89.1 µM [inhibitor, partial curve, poor fit]

Q: With `Cc1ccccc1-c1cc(C(=O)NCc2cccnc2)c2c(c1)N(C)CCO2` as the molecule, how does the Potency read?
A: inconclusive: 70.8 µM [inhibitor, partial curve, poor fit]

Q: For `CC(=O)NCC(=O)NCC1CCN(c2cc(-c3ccc(Cl)cc3)[nH]n2)CC1`, which “activity change, negative = cytotoxicity” value is on record?
A: inactive: -27.1%

Q: For `Cc1cn(C[C@H](NC(=O)c2cccc(F)c2)C(=O)O)c(=O)[nH]c1=O`, which “activity change, negative = cytotoxicity” value is on record?
A: inactive: -22.8% [at 174 µM]

Q: With `COc1ccc(-c2ccnc3nc(-c4ccccc4OC)nn23)cc1OC` as the molecule, how does the Potency read?
A: inconclusive: 28.2 µM [inhibitor, partial curve]

Q: With `CCc1ccc(CN2CCCCC23Cc2ccccc2CNC3=O)cc1` (stereo unspecified) as the molecule, how does the Potency read?
A: inconclusive: 56.2 µM [inhibitor, partial curve, poor fit]

Q: For `CCCC(=O)N1CCC(N2C(=O)C3(CCCCC3)C2c2ccccc2)CC1` (stereo unspecified), which Potency is on record?
A: inconclusive: 44.7 µM [inhibitor, partial curve, poor fit]

Q: For `CCOc1ccc(CC(=O)N2CCC(Cc3nc(-c4ccc(OC)cc4)no3)CC2)cc1OCC`, which Potency is on record?
A: inconclusive: 50.1 µM [inhibitor, partial curve, poor fit]

Q: Which “outcome” value does the source give for `CN1CC(=O)N(C2CCCNC2)Cc2c1ncnc2N1CCCC(O)C1` (stereo unspecified) here?
A: inactive

Q: Which Potency does the source give for `COc1ccc(-c2onc(C)c2C(=O)NCCCCc2ccccc2)cc1` here?
A: inconclusive: 22.4 µM [inhibitor, full curve]

Q: For `CCn1c2c(c(=O)n1Cc1ccccc1)CCN(C(=O)c1cn[nH]c1)C2`, which Potency is on record?
A: inconclusive: 112 µM [inhibitor, single point]
